Substrate in series [1]: O=c1cc(C(F)(F)F)c2ccc(OCc3ccccc3)cc2o1
Substrate in series [2]: O=c1cc(C(F)(F)F)c2ccc(OCc3ccccc3)cc2o1
The experiment in a line: purified protein, by the assay type.

Numbering of substitutions follows the chain as printed. Names may count otherwise. Where two headings read alike, the source gives them in different places.

B1: CYP3A4 (WT) (Homo sapiens) (protein)
chain: MALIPDLAMETWLLLAVSLVLLYLYGTHSHGLFKKLGIPGPTPLPFLGNILSYHKGFCMFDMECHKKYGKVWGFYDGQQPVLAITDPDMIKTVLVKECYSVFTNRRPFGPVGFMKSAISIAEDEEWKRLRSLLSPTFTSGKLKEMVPIIAQYGDVLVRNLRREAETGKPVTLKDVFGAYSMDVITSTSFGVNIDSLNNPQDPFVENTKKLLRFDFLDPFFLSITVFPFLIPILEVLNICVFPREVTNFLRKSVKRMKESRLEDTQKHRVDFLQLMIDSQNSKETESHKALSDLELVAQSIIFIFAGYETTSSVLSFIMYELATHPDVQQKLQEEIDAVLPNKAPPTYDTVLQMEYLDMVVNETLRLFPIAMRLERVCKKDVEINGMFIPKGVVVMIPSYALHRDPKYWTEPEKFLPERFSKKNKDNIDPYIYTPFGSGPRNCIGMRFALMNMKLALIRVLQNFSFKPCKETQIPLKLSLGGLLQPEKPVVLKVESRDGTVSGA
In the case of B1, in series [1], the K0.5 worked out at 9.3 ± 0.4 µM and the kcat came out at 0.000417 ± 8.33e-05 s⁻¹.

B2: K257A CYP3A4 (Homo sapiens; K257A) (protein)
chain: B1 chain with K257A
As to B2, in series [2] (other: K257A CYP3A4), the K0.5 was found to be 8.4 ± 0.5 µM and the kcat was found to be 0.0006 ± 0.000133 s⁻¹.

B3: K266A CYP3A4 (Homo sapiens; K266A) (protein)
chain: B1 chain with K266A
Regarding B3, in series [2] (other: K266A CYP3A4), the K0.5 was 6.1 ± 0.1 µM and the kcat turned out to be 0.000533 ± 5e-05 s⁻¹.

A word on the kcat: it is the number of substrate molecules converted per active site and unit of time at saturation.
